# In all, about 420,000 compounds went through this assay and about 64,000 (15%) were called active. The shares of active, inactive and inconclusive entries below differ from those in the screen. The call rests on the fitted dose curve; in most records, active means well fitted inhibition curve with a large enough effect; inconclusive means small, poorly fitted or top-dose-only effect; inactive means flat fitted curve, though single readings scatter. Potencies of inconclusive entries are left out as doubtful fits.
# Assay: qHTS for Inhibitors of human tyrosyl-DNA phosphodiesterase 1 (TDP1): qHTS in cells in absence of CPT; further: nearly all actives have a fitted effect of over 55% in size
# Conditions: DT40 Tdp1-/- hTDP1 cells, no CPT, ATP luminescence, 48 h; series mostly up to 46.2 µM
# Method in brief: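 Stably hTDP1-transfected Tdp1-null chicken DT40 cells were treated with library compounds minus camptothecin and grown for at least 48 hr at 37 °C, after which cellular ATP was quantified by luminescence.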
# Potency means the concentration at half of the fitted maximal effect; tags describe the fitted curve by direction and shape.
row,Structure (SMILES),Potency
1,CCOC(=O)/C(=C\c1ccccc1)NC(=O)c1ccccc1,inactive
2,O=C(Oc1ccccc1)c1ccccc1O,inactive
3,CN1CCN(C(=O)c2ccc3c(Cl)c4c(nc3c2)CCCC4)CC1,inactive
4,CN(C)C(=O)CCc1ccc2c3c([nH]c2c1)[C@]1(C)[C@@H](C(=O)N2CCOCC2)C[C@H](CC(=O)NCCCn2ccnc2)C(=O)N1CC3,inactive
5,N=c1c(C(=O)NC2CCCC2)cc2c(=O)n3ccccc3nc2n1CCCN1CCOCC1,inactive
6,CC1CC(C)CN(S(=O)(=O)c2ccc(NC(=S)NC(=O)c3ccccc3)cc2)C1 (stereo not drawn),"inconclusive [inhibitor, single point]"
7,Cc1cccc(S(=O)(=O)c2c(C)cc(C)nc2Cl)c1,"inconclusive [inhibitor, partial curve]"
8,CCc1ccc(NC(=O)Cn2nc(C)c([N+](=O)[O-])c2C)cc1,inactive
9,COc1ccccc1NC(=O)CSc1nc2n[nH]c(C)c2c(=N)n1-c1ccccc1Cl,active: 25.9 µM
10,CCOc1ccc2c(c1)C(c1ccccc1)=NNC(c1ccccc1)=N2,"inconclusive [inhibitor, single point]"
11,CCOC(=O)C1C(=O)NC(c2ccccc2)=NC1c1ccc(Cl)cc1 (stereo not drawn),inactive
12,Cc1ccc2cc3c(NC(=O)c4ccco4)nn(CC(C)C)c3nc2c1,"inconclusive [inhibitor, full curve]"
13,COc1cccc(/C=N/NC(=S)Nc2cccc(C(=O)O)c2)c1O,inactive
14,Cc1nc2cc(NC(=O)NCCC3=CCCCC3)ccc2o1,"inconclusive [inhibitor, single point]"
15,CCN(CC)S(=O)(=O)c1ccc(OC)c(NC(=O)c2cccc([N+](=O)[O-])c2C)c1,"inconclusive [inhibitor, partial curve]"
16,COc1ccc(C(=O)N2CCCC(CO)(Cc3ccccc3C)C2)o1 (stereo not drawn),"inconclusive [inhibitor, single point]"
17,O=C(C1COc2ccccc2O1)N1CCN(c2nc3c(F)cc(F)cc3s2)CC1 (stereo not drawn),active: 14.6 µM
18,CCOC(=O)C1CCCN(C2CC(=O)N(c3cccc(C(F)(F)F)c3)C2=O)C1 (stereo not drawn),"inconclusive [inhibitor, single point]"
19,NC(=O)c1ccc(NC(=O)CNC(c2ccccc2)c2ccccc2)cc1,inactive
20,Cc1ccc(NC(=O)N2CCCC2C(=O)Nc2nnc(C(C)C)s2)cc1 (stereo not drawn),inactive
21,COc1ccc(N(C(=O)c2ccco2)C(C(=O)NC2CCCCC2)c2cccs2)cc1OC (stereo not drawn),"inconclusive [inhibitor, single point]"
22,CS(=O)(=O)c1ccc(Nc2nc(C(N)Cc3ccccc3)cs2)cc1 (stereo not drawn),active: 20.6 µM
23,O=S(=O)(c1cccc(COc2c(Cl)cccc2Cl)c1)N1CCOCC1,"inconclusive [inhibitor, partial curve, poor fit]"
24,CCN(CC)c1ccc(C2C(C(=O)OC)=C(C)NC(C)=C2C(=O)OC)cc1,inactive

row,Structure (SMILES),Potency
1,COc1ccc(C(=O)Nc2ccc(-c3nc4ncccc4o3)cc2C)cc1Br,"inconclusive [inhibitor, single point]"
2,COc1ccc(NC(=O)c2c(NCc3ccc(C)o3)sc3c2CCCCC3)c(OC)c1,active: 18.4 µM
3,CCOC(=O)C1CCN(CC(=O)Nc2ccc(S(=O)(=O)N3CCC(C)CC3)cc2)CC1,active: 20.6 µM
4,CCN(CC)c1nc(-c2ccccc2)ncc1S(=O)(=O)c1ccc(C)cc1,active: 16.4 µM
5,CC1(Cc2cccc(C#N)c2)C(=O)Nc2ccc(-c3cccc(C(F)(F)F)c3)cc21 (stereo not drawn),active: 20.6 µM
6,Cc1cc(C)c2c(c1)C1C=CCC1C(c1ccc(S(=O)(=O)N3CCOCC3)cc1)N2 (stereo not drawn),inactive
7,COc1ccc(-n2c(/C=C/c3cccc4ccccc34)nc3ccccc3c2=O)cc1OC,active: 14.6 µM
8,CCC(Sc1nc2nccnc2c(=O)n1Cc1ccccc1Cl)C(=O)NC1CCCCC1 (stereo not drawn),"inconclusive [inhibitor, single point]"
9,Cc1nn(-c2cc(N3CCCC3)ccc2[N+](=O)[O-])c(=O)c2ccccc12,"inconclusive [inhibitor, single point]"
10,COc1ccc(-c2cc(C(=O)N3CCCC3)c3ccccc3n2)cc1,inactive
11,COc1ccccc1N(CC(=O)N1CCCCCC1)S(=O)(=O)c1ccc(C)cc1,"inconclusive [inhibitor, single point]"
12,CCCCCC(=O)N1C[C@@H](n2cc(COC(=O)c3ccccc3)nn2)[C@H](O)C[C@@H]1c1ccc(OC)cc1,"inconclusive [inhibitor, single point]"
13,Cc1ccc(S(C)(=O)=O)cc1C(=O)Nc1ccc(S(=O)(=O)Nc2nccs2)cc1,inactive
14,Cc1ccc(C(c2nnnn2CCC(C)C)N2CCN(C)CC2)cc1 (stereo not drawn),inactive
15,CC(C)=CCC/C(C)=C/CNC(=O)C[C@H]1C[C@H](C(=O)N2CCOCC2)[C@@]2(C)c3[nH]c4cc(-c5ccco5)ccc4c3CCN2C1=O,active: 13 µM
16,Cc1ccc(NC(=O)c2ccc(NCCN)c([N+](=O)[O-])c2)cc1,"inconclusive [inhibitor, partial curve]"
17,Cc1ccc([C@H]2N[C@]3(CCCN(Cc4ccc(Cl)cc4)C3=O)[C@H]3C(=O)N(Cc4ccccc4)C(=O)[C@@H]23)cc1,"inconclusive [inhibitor, single point]"
18,CNc1nc(-c2ccccc2)nnc1C(F)(F)F,inactive
19,CC(C)NC(=O)NC(=O)COC(=O)c1ccc(NC(=O)CC#N)cc1,inactive
20,C#CCCCCCCCCCCCC(O)CC(O)COC(C)=O (stereo not drawn),"inconclusive [inhibitor, full curve, poor fit]"
21,Cc1ccc(CNC(=O)CSCc2ccccc2C)cc1,inactive
22,O=C(CNCc1ccccc1)NCCCN1CCCC1=O,inactive
23,CSc1sc(C(=O)NCC2CC2)cc1S(=O)(=O)C(C)C,"inconclusive [inhibitor, full curve, poor fit]"
24,CCN1CCN(Cc2ccc(NC(=O)Nc3ccccc3Cl)cc2)CC1,"inconclusive [inhibitor, single point]"
